Whole data set: some 33,000 sequences, median “E-score (-0.5 to 0.5)” near -0.04, cut for the highest 2% near 0.36. Some of the results follow.
Each sequence was assayed against T1, Hmlalpha2 (UniProt P0CY09) (assay: PBM E-score (8-mer binding enrichment) (E-score (-0.5 to 0.5)); higher = stronger / more preferred TF binding; most listed sequences are background and not binding sites). Conditions: protein concentration: 200 nM; construct: GST-full length.
T1 sequence: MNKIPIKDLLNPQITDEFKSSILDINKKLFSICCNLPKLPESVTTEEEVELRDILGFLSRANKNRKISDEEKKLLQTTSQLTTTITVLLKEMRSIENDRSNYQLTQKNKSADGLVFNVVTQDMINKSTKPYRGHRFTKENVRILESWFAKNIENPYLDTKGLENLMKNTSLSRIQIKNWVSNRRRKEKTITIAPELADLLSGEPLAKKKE
Experimental: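 Universal 'all 10-mer' protein binding microarrays (Agilent AMADID 015681) probed with GST-tagged S. cerevisiae TFs (full-length or DBD) made by in vitro transcription/translation (PURExpress), about 100-200 nM. Bound TF was detected with fluorescent anti-GST. Each ungapped 8-mer (which stands for itself and its reverse complement) is scored by the PBM enrichment score (E-score), a modified Wilcoxon-Mann-Whitney statistic from -0.5 to +0.5, computed with the Universal PBM Analysis Suite. Scale: above 0.35 generally sequence-specific binding.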

| Sequence | PBM E-score |
| --- | --- |
| CAACACAA | 0.35 |
| GAACATGC | 0.272 |
| AATTCAAT | 0.2 |
| ATCAGCAC | -0.0565 |
| AGCGATCG | -0.035 |
| CAATCGCC | -0.118 |
| AGTCGAAC | -0.107 |
| ACGAAATC | 0.0388 |
| GCCGCCAA | -0.118 |
| GGGCGTCA | -0.318 |
| GATTTCAC | 0.145 |
| CGCAAATA | 0.109 |
| CCCTCACC | -0.363 |
| ATTGCCCG | -0.263 |
| ATTCTTGA | 0.0153 |
| TATTGAAA | 0.17 |
| GCTGATCA | -0.094 |
| CATGGCAG | 0.0777 |
| AGCGCTGA | -0.063 |
| CCGAGCCG | -0.161 |
| ATCAACCA | -0.0494 |
| CCGGTTAC | 0.11 |
| GGTCCTAC | -0.306 |
| ATGATCAA | 0.163 |
| ATTTAATG | 0.248 |

| Sequence | PBM E-score |
| --- | --- |
| ACATTGGA | 0.043 |
| ATGTAGCC | 0.0415 |
| AGAGCCGC | -0.241 |
| ACGAAGCT | 0.0843 |
| CGCATCAG | -0.0761 |
| CCGCAACA | 0.166 |
| CCGTTCTA | 0.00472 |
| TGAAGGAA | -0.0399 |
| CGCGCCAA | 0.119 |
| ATATCACC | 0.0884 |
| ACGGGTCG | 0.118 |
| CTAGTGGA | -0.217 |
| AATGCTAC | 0.204 |
| CGCATTCA | 0.233 |
| GTCTCTTA | -0.016 |
| AAGCAACG | 0.0094 |
| AACCTAGA | -0.109 |
| GAACCGCA | -0.0253 |
| ATGACTGA | -0.136 |
| ATATACGA | 0.15 |
| ATTCGTCC | 0.0913 |
| CGCAGCGC | -0.118 |
| AAAGTGAG | -0.0742 |
| ACATGTCT | 0.305 |
| ATAGCGAC | 0.106 |

| Sequence | PBM E-score |
| --- | --- |
| AGAGGGCA | -0.167 |
| GCGCCCAC | -0.22 |
| ACGAAACT | 0.0327 |
| GTCCGTAA | 0.141 |
| ATCTAGTA | 0.282 |
| CCGGAGAA | -0.259 |
| CGTGTGAC | 0.0258 |
| GCCATCCA | -0.202 |
| ATCAGGGA | -0.151 |
| AAGTTGGC | -0.123 |
| ATGCTATG | 0.244 |
| GCTGTTCC | -0.312 |
| GAGCTTAA | -0.0642 |
| AGGAGTAA | 0.0454 |
| CCGGTACG | -0.214 |
| CTTCCACC | -0.141 |
| GCACTCGA | -0.0979 |
| CCTTGGCG | -0.283 |
| CGAATAGA | -0.159 |
| CATAAGCG | 0.033 |
| ACCAGTTC | -0.213 |
| ACTTATTA | 0.155 |
| GTATATTA | 0.29 |
| ACTCATTC | -0.125 |
| AGGTCTAC | -0.0603 |

| Sequence | PBM E-score |
| --- | --- |
| CGCTATCC | -0.013 |
| TCTCCAAA | 0.0714 |
| AAAGGCTT | -0.162 |
| GATTCTTA | 0.144 |
| TGATAGAA | 0.0602 |
| AATGTTGA | 0.256 |
| AAGTGCTG | 0.107 |
| ACTCTAAG | -0.174 |
| CGATTGCA | 0.0235 |
| ACTAGTCG | -0.198 |
| CCCCTTAG | -0.353 |
| CTGTCCTA | -0.145 |
| AACAACCC | 0.155 |
| GATTCGTA | 0.0776 |
| ATTCGTGC | 0.149 |
| AATTCTGG | -0.0201 |
| CATCGAAG | -0.0231 |
| ATCACTGC | -0.0263 |
| CGCCTCCA | -0.205 |
| CCTCCCGA | -0.357 |
| CTACCCGC | -0.139 |
| TCACTGGA | -0.0631 |
| GAACGATC | -0.0263 |
| GTCTGTAA | 0.217 |
| GGATGGAC | -0.22 |

| Sequence | PBM E-score |
| --- | --- |
| CATTCTGA | -0.213 |
| ACAGTTCA | 0.146 |
| CACCCTAA | -0.0851 |
| GCGCTCAA | -0.0978 |
| ATGGTAAG | -0.0494 |
| GAAATTCC | -0.175 |
| ACCTACAA | 0.186 |
| CTCGACTC | -0.0461 |
| GCGGACGC | -0.234 |
| CCCATTGC | -0.128 |
| ACAGGTAC | 0.0935 |
| TATCAGGA | -0.0805 |
| AACGCGCC | 0.24 |
| AAATAGTT | 0.0796 |
| CAAACATC | 0.0613 |
| CTATCTAA | -0.0399 |
| GCAGGCAA | -0.0121 |
| AGTCCAGG | -0.223 |
| CGATGCAC | -0.073 |
| AACAAGAT | 0.24 |
| CAACCGCG | 0.157 |
| AAATCAAT | 0.22 |
| AGGGTTAC | -0.0596 |
| CGGCCCCG | -0.355 |
| CTGAAAAA | -0.00046 |

| Sequence | PBM E-score |
| --- | --- |
| AGAACGGG | -0.139 |
| ACACCGCC | -0.0211 |
| ACAACGTA | 0.246 |
| CCTTATTC | -0.221 |
| CGGTTCCA | -0.3 |
| GCTGTCAC | -0.03 |
| AGGGTTTC | -0.0942 |
| GATCACAC | 0.164 |
| CCCGGAGG | -0.314 |
| CACTCTAG | -0.14 |
| ACCCCGTC | -0.348 |
| ACTTAGGC | -0.0936 |
| CTGCCAAC | -0.167 |
| GGCCCAAC | -0.173 |
| CCGGAACA | -0.0334 |
| ACCACATG | 0.241 |
| GCTCTGAC | -0.0767 |
| TAAATGAA | 0.0494 |
| AAAGTCAA | 0.00731 |
| ACGGCCAG | -0.149 |
| AACCATGC | -0.0458 |
| AGTTAAAC | 0.286 |
| AGAATGCA | 0.0161 |
| CGGCATGC | -0.111 |
| GTTAGCTA | -0.0298 |

| Sequence | PBM E-score |
| --- | --- |
| GTTAAGCA | 0.172 |
| CCGGAATA | 0.0894 |
| ATCAAATG | 0.0673 |
| GCAGACAC | -0.0269 |
| AGGTATAA | 0.0833 |
| CGTCGTGC | 0.148 |
| GCGGGGAC | -0.189 |
| GTGGTTAA | 0.198 |
| AATGTAAA | 0.434 |
| ACTAGGGG | -0.345 |
| TGCCTACA | 0.0851 |
| CGCGCTAG | -0.0147 |
| GAGCACGA | -0.058 |
| ACTAATCG | 0.0216 |
| GCCATACA | 0.0644 |
| GATGATCA | -0.233 |
| CGTCGGTC | -0.0542 |
| AAGTGTCG | 0.0503 |
| TACTTCCA | -0.0223 |
| ATCCACAC | -0.0685 |
| CCCCTTGA | -0.173 |
| TAGGTTCA | -0.00058 |
| AGCTAGAT | 0.0426 |
| GGCCGTAA | -0.179 |
| ATAGGAGA | 0.0214 |

| Sequence | PBM E-score |
| --- | --- |
| TACCGGTA | 0.0309 |
| GGGCTGTA | -0.141 |
| AATGCGGA | -0.035 |
| AGACGATA | -0.0129 |
| AACCAAGT | 0.163 |
| CTGAGTCA | -0.142 |
| ATGAGAGA | -0.0203 |
| ATGTGACC | -0.15 |
| CCATATGG | -0.251 |
| AAGCAGGA | -0.0686 |
| GGCCTTAA | 0.00254 |
| TCTGCCAA | -0.124 |
| CGACTGGA | -0.372 |
| GGTCCCAA | -0.209 |
| CCCCCAGC | -0.388 |
| CATACCGA | 0.00368 |
| AGACCTGC | -0.0816 |
| AGTCTGCC | -0.184 |
| AAGACTTA | 0.202 |
| AACCGAAA | 0.145 |
| AATCATCT | -0.0172 |
| CCTGGTCA | -0.247 |
| CACGCATG | 0.219 |
| AAGGCCCA | -0.33 |
| AGATCGTG | 0.0948 |

| Sequence | PBM E-score |
| --- | --- |
| TTCTGCAA | 0.0201 |
| ATACGCAT | 0.251 |
| ATATGCTC | -0.131 |
| CTATACGA | -0.0339 |
| CACGGCGG | 0.00128 |
| ACCTATCA | -0.0857 |
| AAGATAAG | 0.0797 |
| ACCTAGTA | 0.0968 |
| ATGAGTTA | -0.0116 |
| AACGACTG | -0.204 |
| CGCGGGTA | 0.0735 |
| TTCCAAAA | 0.0576 |
| ATACTAGA | 0.124 |
| CACCTACG | -0.0917 |
| AGCTGCAT | -0.0342 |
| AGTAGGAT | -0.0191 |
| AAATTTCC | -0.0851 |
| ACAAATGT | 0.287 |
| GAGGAAGA | -0.187 |

Source: the supplement of paper PMC3334620
